{"source": "PubChem BioAssay AID624260", "about": "(Broad Institute, 2012)", "note": "Out of some 44,000 compounds screened, about 30 (0.07%) were called active. The inconclusive results got no clear call from the source; some entries with a clear call stand among them for comparison. No stated cut-off is given here; in the data, active means inhibition above about 54% (passing the limit was not always enough); inconclusive means no clear call, values can overlap the other calls."}
{"molecular_target": "Histone-lysine N-methyltransferase NSD2 (Homo sapiens) (UniProt O96028)", "sequence (O96028 whole entry, looked up)": "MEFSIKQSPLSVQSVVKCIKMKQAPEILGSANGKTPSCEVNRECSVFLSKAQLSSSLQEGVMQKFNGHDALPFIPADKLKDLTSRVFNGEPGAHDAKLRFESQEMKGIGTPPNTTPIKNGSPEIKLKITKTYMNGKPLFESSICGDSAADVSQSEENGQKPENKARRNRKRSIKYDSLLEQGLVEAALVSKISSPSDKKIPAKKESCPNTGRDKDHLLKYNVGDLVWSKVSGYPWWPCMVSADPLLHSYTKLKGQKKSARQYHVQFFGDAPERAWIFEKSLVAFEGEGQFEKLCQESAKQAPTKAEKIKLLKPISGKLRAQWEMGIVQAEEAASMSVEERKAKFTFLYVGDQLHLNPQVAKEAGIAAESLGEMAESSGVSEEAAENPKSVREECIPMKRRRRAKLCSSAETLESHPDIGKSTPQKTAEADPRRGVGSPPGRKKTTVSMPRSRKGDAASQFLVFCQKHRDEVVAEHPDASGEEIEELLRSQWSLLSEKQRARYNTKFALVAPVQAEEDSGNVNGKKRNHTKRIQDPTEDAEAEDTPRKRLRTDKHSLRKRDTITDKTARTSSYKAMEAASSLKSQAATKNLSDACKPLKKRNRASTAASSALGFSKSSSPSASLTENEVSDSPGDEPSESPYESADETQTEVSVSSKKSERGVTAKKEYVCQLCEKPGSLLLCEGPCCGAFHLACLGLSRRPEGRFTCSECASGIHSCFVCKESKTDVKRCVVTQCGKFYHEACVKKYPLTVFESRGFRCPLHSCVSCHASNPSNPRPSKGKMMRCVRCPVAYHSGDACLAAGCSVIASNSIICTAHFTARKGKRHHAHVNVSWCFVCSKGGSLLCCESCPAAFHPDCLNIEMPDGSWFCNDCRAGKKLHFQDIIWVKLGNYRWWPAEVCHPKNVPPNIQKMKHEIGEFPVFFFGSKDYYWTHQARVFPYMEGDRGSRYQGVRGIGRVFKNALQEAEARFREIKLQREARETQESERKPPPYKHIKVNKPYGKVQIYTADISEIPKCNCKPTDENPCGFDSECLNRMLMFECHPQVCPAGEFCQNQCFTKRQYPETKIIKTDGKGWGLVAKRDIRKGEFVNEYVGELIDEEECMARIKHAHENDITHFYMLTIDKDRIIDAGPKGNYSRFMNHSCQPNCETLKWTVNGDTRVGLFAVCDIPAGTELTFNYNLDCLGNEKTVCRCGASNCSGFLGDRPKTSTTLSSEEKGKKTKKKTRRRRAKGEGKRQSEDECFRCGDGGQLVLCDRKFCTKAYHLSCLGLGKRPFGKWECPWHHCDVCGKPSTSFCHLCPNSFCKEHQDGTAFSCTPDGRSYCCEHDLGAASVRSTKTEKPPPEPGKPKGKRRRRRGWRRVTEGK", "assay": "NSD2 histone methyltransferase activity blockers – biochemical, plate reader, single point, primary screen (AID 624260);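 further: inhibitors reduce the monomethyl H3K36 fluorescence signal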", "settings": "NSD2-SET H3K36me1 DELFIA fluorescence, at 12.5 µM, hits give high values"}
{"smiles": "Cc1cc(C)nc(N2CC(=O)N(CCOc3ccc(Br)cc3)C2=O)n1", "inhibition": "inactive: 7.81%"}
{"smiles": "O=C(CCCCCCC(=O)Nc1ccccc1O)N/N=C/c1cccc(Oc2ccccc2)c1", "inhibition": "inactive: -7.9%"}
{"smiles": "CCCN(C)C[C@@H]1Oc2cc(C#CC(C)C)ccc2S(=O)(=O)N([C@@H](C)CO)C[C@@H]1C", "inhibition": "inconclusive: 111%"}
{"smiles": "COCC#Cc1ccc2c(c1)O[C@H](CN(C)Cc1ccncc1)[C@H](C)CN([C@@H](C)CO)S2(=O)=O", "inhibition": "inconclusive: 73.5%"}
{"smiles": "C[C@@H]1CN([C@@H](C)CO)C(=O)c2cc(NC(=O)NC3CCCCC3)ccc2O[C@@H](C)CCCCO[C@@H]1CN(C)C(=O)CCCN(C)C", "inhibition": "inconclusive: 77%"}
{"smiles": "C[C@@H]1CCCCO[C@@H](CN(C)C(=O)Nc2ccc(F)cc2)[C@@H](C)CN([C@H](C)CO)C(=O)c2cc(NS(=O)(=O)c3ccc(Cl)cc3)ccc2O1", "inhibition": "inactive: 0.769%"}
{"smiles": "C=C1C[C@@]23CCC4[C@](C)(C(=O)O)CCC[C@@]4(C)[C@]2(O)CCC1C3", "note": "(stereo partly specified)", "inhibition": "inactive: -1.3%"}
{"smiles": "CCC(=O)N(C)C[C@@H]1Oc2cc(C#CC3(O)CCCC3)ccc2S(=O)(=O)N([C@H](C)CO)C[C@@H]1C", "inhibition": "inconclusive: 143%"}
{"smiles": "C[C@@H]1CN([C@@H](C)CO)C(=O)c2cc(NS(=O)(=O)c3cn(C)cn3)ccc2O[C@@H](C)CCCCO[C@H]1CN(C)S(=O)(=O)c1cn(C)cn1", "inhibition": "inconclusive: 182%"}
{"smiles": "C[C@@H]1CN([C@@H](C)CO)C(=O)Cc2cc(NC(=O)Nc3ccc4c(c3)OCO4)ccc2O[C@H]1CN(C)CC1CC1", "inhibition": "inconclusive: 53%"}
{"smiles": "O=C(C[C@@H]1C[C@@H]2c3cc(NS(=O)(=O)c4ccc(F)cc4)ccc3O[C@@H]2[C@@H](CO)O1)N1CCCCC1", "inhibition": "inconclusive: 97.2%"}
{"smiles": "O=C(C[C@@H]1C[C@H]2c3cc(NC(=O)c4ccc5c(c4)OCO5)ccc3O[C@H]2[C@H](CO)O1)NCC1CC1", "inhibition": "inconclusive: 119%"}
{"smiles": "O=C(CCCCCC(=O)N/N=C/c1ccc(O)c2ccccc12)NO", "inhibition": "inactive: -4.28%"}
{"smiles": "C[C@H]1CN([C@@H](C)CO)C(=O)c2cc(NC(=O)C3CC3)ccc2O[C@H]1CN(C)Cc1ccc(C(F)(F)F)cc1", "inhibition": "inconclusive: 177%"}
{"smiles": "C[C@@H]1CN([C@@H](C)CO)C(=O)c2cc(NC(=O)Cn3cnnn3)ccc2O[C@H]1CN(C)C(=O)NC1CCCCC1", "inhibition": "inactive: -1.45%"}
{"smiles": "CN(C)C(=O)C[C@H]1C[C@H]2c3cc(NC(=O)Nc4ccccc4F)ccc3O[C@H]2[C@@H](CO)O1", "inhibition": "inactive: 2.09%"}
{"smiles": "CC(=O)OC(CCCCCCCCCC(C)O)Cc1cc(O)cc(O)c1", "note": "(stereo unspecified)", "inhibition": "inactive: -4.39%"}
{"smiles": "CCC(=O)N(C)C[C@@H]1Oc2cc(C#CCC3CCCC3)ccc2S(=O)(=O)N([C@@H](C)CO)C[C@H]1C", "inhibition": "inconclusive: 126%"}
{"smiles": "CNC[C@@H]1OCCCC[C@@H](C)Oc2ccc(NC(=O)Nc3ccccc3)cc2C(=O)N([C@@H](C)CO)C[C@H]1C", "inhibition": "inconclusive: 75.4%"}
{"smiles": "Cc1ccc(OCC(O)CNc2ccc(Br)c(C(F)(F)F)c2)cc1C", "note": "(stereo unspecified)", "inhibition": "inactive: -6.25%"}
{"smiles": "CC(=O)N(C)C[C@H]1Oc2cc(C#Cc3ccccn3)ccc2S(=O)(=O)N([C@H](C)CO)C[C@@H]1C", "inhibition": "inconclusive: 126%"}
{"smiles": "CNC[C@@H]1Oc2ccc(NC(=O)C3CC3)cc2CC(=O)N([C@@H](C)CO)C[C@H]1C", "inhibition": "inconclusive: 110%"}
{"smiles": "COCC(=O)N(C)C[C@@H]1Oc2ncc(C#CC(C)(C)O)cc2C(=O)N([C@H](C)CO)C[C@H]1C", "inhibition": "inconclusive: 175%"}
{"smiles": "CCCNC(=O)CSc1nc2nc(C)c(Cc3cccc(C)c3)c(C)n2n1", "inhibition": "inactive: -3.49%"}
{"smiles": "CCCC#Cc1cnc2c(c1)C(=O)N([C@@H](C)CO)C[C@@H](C)[C@@H](CN(C)Cc1ccccc1F)O2", "inhibition": "inactive: 4.92%"}
{"smiles": "C[C@H]1CN([C@@H](C)CO)C(=O)c2cc(NS(=O)(=O)c3cn(C)cn3)ccc2O[C@H]1CN(C)C(=O)Nc1ccc2c(c1)OCO2", "inhibition": "inconclusive: 196%"}
{"smiles": "C[C@@H]1CN([C@H](C)CO)C(=O)c2cc(NS(=O)(=O)c3ccccc3)ccc2O[C@@H](C)CCCCO[C@H]1CN(C)C(=O)Nc1ccc(F)cc1", "inhibition": "inconclusive: 57.1%"}
{"smiles": "CCC(=O)N(C)C[C@H]1Oc2cc(C#CC3(O)CCCC3)ccc2S(=O)(=O)N([C@@H](C)CO)C[C@@H]1C", "inhibition": "inconclusive: 191%"}
{"smiles": "C[C@@H]1CCCCO[C@H](CN(C)C(=O)Cc2ccccc2)[C@@H](C)CN([C@@H](C)CO)C(=O)c2cc(NC(=O)Nc3ccccc3)ccc2O1", "inhibition": "inconclusive: 105%"}
{"smiles": "C[C@H](CO)N1C[C@H](C)[C@@H](CN(C)Cc2ccc(C(F)(F)F)cc2)Oc2ccc(NC(=O)Cn3cnnn3)cc2CC1=O", "inhibition": "inactive: -8%"}
{"smiles": "C[C@@H]1CCCCO[C@@H](CN(C)C(=O)C2CCCCC2)[C@@H](C)CN([C@H](C)CO)C(=O)c2cc(NC(=O)Nc3ccccc3)ccc2O1", "inhibition": "inconclusive: 101%"}
{"smiles": "CC(C)CC#Cc1ccc2c(c1)O[C@H](CN(C)Cc1cncnc1)[C@H](C)CN([C@H](C)CO)S2(=O)=O", "inhibition": "inconclusive: 150%"}
{"smiles": "C[C@H]1CN([C@@H](C)CO)C(=O)Cc2cc(NC(=O)CCC(F)(F)F)ccc2O[C@@H]1CN(C)C(=O)Nc1cccc2ccccc12", "inhibition": "inactive: -2.46%"}
{"smiles": "C[C@H](CO)N1C[C@H](C)[C@H](CN(C)S(=O)(=O)c2cn(C)cn2)Oc2ncc(C#Cc3ccccc3)cc2C1=O", "inhibition": "inconclusive: 137%"}
{"smiles": "CC(=O)N(C)C[C@@H]1Oc2cc(-c3ccccc3F)ccc2S(=O)(=O)N([C@@H](C)CO)C[C@@H]1C", "inhibition": "inactive: -3.52%"}
{"smiles": "COc1ccc([Si](C)(C)[C@@H]2[C@@H](CCO)O[C@]3(C(=O)N(Cc4ccc(N5CCC5=O)cc4)c4ccccc43)[C@H]2C)cc1", "inhibition": "inconclusive: 56.1%"}
{"smiles": "C[C@@H]1CN([C@H](C)CO)C(=O)Cc2cc(NC(=O)CCC(F)(F)F)ccc2O[C@@H]1CN(C)Cc1ccc(Cl)c(Cl)c1", "inhibition": "inactive: -7.39%"}
{"smiles": "CC(C)(C)c1cc(C(C)(C)C)n(-c2ccc(-n3cccc3)cc2)n1", "inhibition": "inactive: 3.09%"}
{"smiles": "C[C@@H]1CN([C@@H](C)CO)S(=O)(=O)c2ccc(-c3ccccc3)cc2O[C@H]1CN(C)C(=O)c1ccc2c(c1)OCO2", "inhibition": "inconclusive: 143%"}
{"smiles": "CCCC#Cc1cnc2c(c1)C(=O)N([C@H](C)CO)C[C@@H](C)[C@@H](CN(C)Cc1ccccc1)O2", "inhibition": "inconclusive: 174%"}
{"smiles": "C[C@H]1CN([C@@H](C)CO)C(=O)c2cccc(NC(=O)Nc3cccc4ccccc34)c2O[C@H]1CN(C)C(=O)Nc1ccc(F)cc1", "inhibition": "inactive: -2.06%"}
{"smiles": "C[C@@H]1CCCCO[C@@H](CN(C)S(=O)(=O)c2cn(C)cn2)[C@H](C)CN([C@@H](C)CO)C(=O)c2cc(NS(=O)(=O)c3cn(C)cn3)ccc2O1", "inhibition": "inconclusive: 147%"}
{"smiles": "C[C@@H]1CN([C@H](C)CO)C(=O)c2cc(NC(=O)NC3CCCCC3)ccc2O[C@H]1CN(C)C", "inhibition": "inactive: 7.02%"}
{"smiles": "Cc1noc(C)c1NC(=O)Nc1ccc2c(c1)C(=O)N([C@@H](C)CO)C[C@H](C)[C@H](CN(C)C(=O)NC(C)C)OCCCC[C@H](C)O2", "inhibition": "inconclusive: 117%"}
{"smiles": "C[C@@H]1CCCCO[C@@H](CN(C)Cc2ccc(C(F)(F)F)cc2)[C@H](C)CN([C@H](C)CO)C(=O)c2cc(NC(=O)CCCN(C)C)ccc2O1", "inhibition": "inconclusive: 199%"}
{"smiles": "CCCC#Cc1ccc2c(c1)O[C@@H](CN(C)C(=O)CC1CC1)[C@@H](C)CN([C@H](C)CO)S2(=O)=O", "inhibition": "inconclusive: 147%"}
{"smiles": "C/C=C/c1ccc2c(c1)O[C@@H](CN(C)C(=O)c1ccccc1F)[C@@H](C)CN([C@H](C)CO)S2(=O)=O", "inhibition": "inconclusive: 129%"}
{"smiles": "C[C@H](CO)N1C[C@H](C)[C@@H](CN(C)Cc2ccc3c(c2)OCO3)Oc2c(NC(=O)c3ccncc3)cccc2C1=O", "inhibition": "inconclusive: 131%"}
{"smiles": "C[C@@H]1CN([C@@H](C)CO)C(=O)c2cc(C#Cc3ccc(F)cc3)cnc2O[C@H]1CN(C)Cc1ccccn1", "inhibition": "inconclusive: 134%"}
{"smiles": "C[C@H](CO)N1C[C@H](C)[C@@H](CN(C)C(=O)NC2CCCCC2)Oc2c(NC(=O)Nc3ccccc3)cccc2C1=O", "inhibition": "inconclusive: 105%"}
{"smiles": "CC(C)NC(=O)N(C)C[C@@H]1Oc2ncc(C#Cc3ccc(C(F)(F)F)cc3)cc2C(=O)N([C@H](C)CO)C[C@@H]1C", "inhibition": "inconclusive: 51.9%"}
{"smiles": "C[C@@H]1CN([C@H](C)CO)C(=O)c2cc(NC(=O)C3CCCCC3)ccc2O[C@@H](C)CCCCO[C@H]1CN(C)C(=O)Nc1ccccc1", "inhibition": "inconclusive: 53%"}
{"smiles": "COC(=O)CCCCCCC(=O)N/N=C/c1cccc(O)c1", "inhibition": "inactive: 6.43%"}
{"smiles": "C[C@H](CO)N1C[C@H](C)[C@@H](CN(C)C(=O)Nc2ccccc2)Oc2ccc(NC(=O)CCN3CCOCC3)cc2C1=O", "inhibition": "inconclusive: 192%"}
{"smiles": "Cc1noc(C)c1NC(=O)Nc1cccc2c1O[C@H](CN(C)S(=O)(=O)c1ccc(Cl)cc1)[C@H](C)CN([C@@H](C)CO)C2=O", "inhibition": "inactive: -1.19%"}
{"smiles": "COc1cc(C[C@@H]2CO[C@@H](c3ccc(O)c(OC)c3)[C@@H]2CO)ccc1O", "inhibition": "active: 68%"}
{"smiles": "OCC1(CO)COC(COc2ccccc2)=N1", "inhibition": "inactive: -4.57%"}
{"smiles": "Cc1ccc(N2C(=O)C3C4C=CC(CNC(=S)Nc5ccc(Br)cc5)(O4)C3C2=O)cc1", "note": "(stereo unspecified)", "inhibition": "inactive: 7.2%"}
{"smiles": "CC(C)NC(=O)Nc1ccc2c(c1)C(=O)N([C@H](C)CO)C[C@@H](C)[C@H](CN(C)C(=O)Cc1ccccc1)OCCCC[C@@H](C)O2", "inhibition": "inactive: 15.4%"}
{"smiles": "C[C@H]1CN([C@@H](C)CO)C(=O)CCCn2cc(nn2)CO[C@H]1CN(C)C(=O)Nc1ccccc1", "inhibition": "inactive: 5.61%"}
{"smiles": "C/C=C/c1ccc2c(c1)O[C@H](CN(C)C(=O)CN1CCOCC1)[C@H](C)CN([C@@H](C)CO)S2(=O)=O", "inhibition": "inconclusive: 155%"}
